# Source: the supplement of paper PMC3334620
# Over roughly 33,000 sequences, “E-score (-0.5 to 0.5)” has its median near -0.043; the highest 2% begin near 0.37. Some of the results follow.
# Molecular target: T1, Upc2 (UniProt Q12151)
# T1 sequence: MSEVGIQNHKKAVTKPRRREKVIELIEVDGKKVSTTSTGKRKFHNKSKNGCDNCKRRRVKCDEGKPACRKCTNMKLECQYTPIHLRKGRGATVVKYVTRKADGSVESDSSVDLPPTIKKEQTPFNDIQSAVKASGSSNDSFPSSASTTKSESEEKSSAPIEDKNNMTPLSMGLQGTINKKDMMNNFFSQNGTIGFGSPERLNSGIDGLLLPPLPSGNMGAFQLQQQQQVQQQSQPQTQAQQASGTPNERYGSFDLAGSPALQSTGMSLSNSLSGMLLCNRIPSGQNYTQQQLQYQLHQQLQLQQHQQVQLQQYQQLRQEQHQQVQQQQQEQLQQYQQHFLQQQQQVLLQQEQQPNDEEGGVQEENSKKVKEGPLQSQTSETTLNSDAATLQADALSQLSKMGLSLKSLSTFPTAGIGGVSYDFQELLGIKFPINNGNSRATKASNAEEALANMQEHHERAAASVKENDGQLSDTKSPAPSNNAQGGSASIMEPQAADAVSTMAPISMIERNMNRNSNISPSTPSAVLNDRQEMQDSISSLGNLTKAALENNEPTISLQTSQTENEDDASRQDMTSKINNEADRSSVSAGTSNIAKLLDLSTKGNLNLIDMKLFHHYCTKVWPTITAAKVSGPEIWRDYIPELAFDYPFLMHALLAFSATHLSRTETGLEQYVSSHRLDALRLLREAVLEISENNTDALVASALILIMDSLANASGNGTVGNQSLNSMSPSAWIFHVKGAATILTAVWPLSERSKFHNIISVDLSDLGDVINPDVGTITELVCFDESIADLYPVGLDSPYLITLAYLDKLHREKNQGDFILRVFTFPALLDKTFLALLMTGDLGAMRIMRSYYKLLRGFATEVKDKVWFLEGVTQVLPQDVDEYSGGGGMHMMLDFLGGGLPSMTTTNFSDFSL
# Experiment: PBM E-score (8-mer binding enrichment) (E-score (-0.5 to 0.5)); higher = stronger / more preferred TF binding; most listed sequences are background and not binding sites
# Details: protein concentration: 200 nM; construct: GST-full length
# Protocol: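 Universal 'all 10-mer' protein binding microarrays (Agilent AMADID 015681) probed with GST-tagged S. cerevisiae TFs (full-length or DBD) made by in vitro transcription/translation (PURExpress), about 100-200 nM. Bound TF was detected with fluorescent anti-GST. Each ungapped 8-mer (which stands for itself and its reverse complement) is scored by the PBM enrichment score (E-score), a modified Wilcoxon-Mann-Whitney statistic from -0.5 to +0.5, computed with the Universal PBM Analysis Suite. Scale: above 0.35 generally sequence-specific binding.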
row,Sequence,PBM E-score
1,TAGTATGA,-0.0515
2,CGAAAGAG,0.0497
3,AGACAATA,0.148
4,ACCGCTAA,0.128
5,CATTATCA,-0.176
6,AGCGAAAG,0.133
7,AATTTAAT,0.0226
8,GCGAGAGC,0.23
9,GATTACGC,0.0207
10,ACCCGGGG,-0.0738
11,TAGTGGGA,-0.312
12,CCGAGCCA,-0.0165
13,TCAGGAAA,-0.0998
14,ATATTGGA,-0.149
15,AAGTGATC,0.00472
16,CTCGGTCA,0.195
17,ATCACGCC,-0.0941
18,CCTACGCC,-0.257
19,AGAGCGAG,0.127
20,ACACACCA,0.073
21,GTAGACGA,0.218
22,TCATAGAA,-0.0214
23,GACGATAC,0.124
24,GAAAGTAC,0.0246
25,AGAGCCCC,-0.0215

row,Sequence,PBM E-score
1,CCACATAC,0.232
2,ACACTTGA,-0.0493
3,GACCAACA,0.00527
4,ATAGAAGA,-0.158
5,ACATAGGT,0.0287
6,GCATCATA,0.00045
7,CACCCGCC,0.0703
8,CGGGAAGC,-0.14
9,GGAACTAC,-0.137
10,GAAAAACA,-0.0431
11,CCCTGGCA,-0.223
12,TAGGAGGA,-0.211
13,ACCTCAAA,0.0106
14,ACTTACGA,0.382
15,AGGGTGGA,-0.183
16,ATAGTATG,0.0124
17,ATAACCTC,-0.0875
18,CAGTGTAG,-0.0938
19,CCAAGTAA,0.16
20,GTGCCCAC,-0.104
21,CTTTTAGA,0.114
22,GACGAGTA,0.104
23,AGAGTTAT,-0.0578
24,GACACAGC,-0.146
25,CCCCCGCC,-0.299

row,Sequence,PBM E-score
1,CTTACGGC,0.185
2,AAACCGGA,-0.113
3,CCGTCCTC,-0.0575
4,AACCTTTA,-0.0707
5,GCTTTGCA,-0.159
6,CTGGCGCA,-0.234
7,AACACCCC,-0.187
8,CGATGTCA,0.0214
9,AACGCTAG,-0.089
10,CCATCATC,-0.00835
11,ACGTCTCT,0.073
12,AGAACGAG,0.42
13,TCCAGGCA,0.0278
14,AAGACACA,-0.109
15,GTCCCGAA,-0.116
16,AAATATCT,-0.0249
17,CAGCATGA,-0.387
18,ACCGGGTA,0.181
19,ATATATAT,-0.158
20,GCTCACAA,-0.0537
21,ATATCAAC,-0.165
22,CGTCCAAC,-0.065
23,CTAGGCTC,-0.0923
24,ACCGCGTG,-0.1
25,CTGTGTCC,-0.0675

row,Sequence,PBM E-score
1,CTTTTCTC,-0.11
2,ACTCTAGC,-0.12
3,GAGCACGC,0.00268
4,AAAGTCGA,-0.0915
5,AACACGCT,-0.149
6,AATCATAC,0.263
7,ACCGTCTA,-0.103
8,CCTATTCG,0.204
9,CTCTGATA,-0.142
10,CGCGCAGC,-0.0842
11,ACTCGGTA,0.109
12,AAGATCAG,-0.0402
13,TAGCCCTA,-0.163
14,AGTGATTA,0.0783
15,AATCTGAC,-0.119
16,CCCTCCGA,-0.161
17,GGCTCTCA,-0.202
18,CATACTTA,-0.00914
19,CAAGTCTA,0.00161
20,TAGGGCGA,-0.129
21,TAATGAGA,-0.102
22,CCTGGTCC,-0.198
23,ATCCCCAA,-0.222
24,CGACTATC,0.0595
25,ATAGAAAT,0.0412

row,Sequence,PBM E-score
1,GAGCCTCA,-0.127
2,GGTTGCAC,-0.0809
3,GCCGGAAA,0.0179
4,TAGTCACA,-0.101
5,CTAAGGAG,-0.115
6,CCCGTATC,0.339
7,CCCCCGAA,-0.129
8,CATCCTAC,-0.0778
9,AGCCACTG,0.0789
10,GAATCTAA,0.111
11,AGCTGGCC,-0.126
12,GATAGGGC,-0.366
13,GCGATTTA,0.0803
14,AAAGGAAT,-0.0898
15,CACGGCGC,-0.188
16,GAATTAAC,0.154
17,CAGTAGAC,-0.126
18,GGTGGTTA,-0.0349
19,CTGGTTGC,-0.0566
20,AACACAGA,-0.00201
21,AAAATTGG,-0.0899
22,GGGCTCGA,-0.0448
23,CCGTTGTC,0.189
24,ACGGCTAT,-0.0248
25,GGTAAAAA,-0.0161

row,Sequence,PBM E-score
1,GCTAAAGA,0.0895
2,TCTGATAA,-0.188
3,TATCCAAA,0.178
4,AAGGACAC,-0.0987
5,ACTGTCGC,-0.0465
6,CACGCGGC,-0.19
7,CAATACTC,0.0235
8,ATGAGCTC,-0.125
9,CGATGGGC,0.0724
10,CTCTGTTC,-0.218
11,CTAGAAAA,-0.0104
12,GGATAATA,-0.0041
13,AAAGATTC,0.0374
14,AAGGTGAC,-0.26
15,GTCGCAAC,0.119
16,CTAACATA,0.0276
17,CACAAAGA,-0.104
18,GGCTTCGA,-0.0382
19,ACGTAGAT,0.113
20,GATTCCAC,-0.0954
21,AGGACCAC,-0.158
22,GTCCTTTA,-0.138
23,GGCGGGAC,-0.0696
24,ACCTCGTC,0.0626
25,CGCGCCAG,-0.0872

row,Sequence,PBM E-score
1,GTGCCTCA,-0.316
2,GGTGGAAA,-0.128
3,GCGCGTGA,0.076
4,AAAACCAC,-0.0422
5,GGGTACAC,-0.0159
6,CTCCATAC,0.151
7,ACACTAGG,-0.152
8,GACGCTTA,0.124
9,GGCACGGA,-0.208
10,CCTCTCTA,-0.35
11,CTCTTGTA,-0.114
12,GCTCCAGC,0.0527
13,AGTCGTAA,0.379
14,GCCACGGC,-0.0747
15,GGGAGCAA,-0.11
16,GAAGCTCC,-0.0734
17,CCCAAGCA,-0.206
18,CATACAGC,-0.184
19,GGGGTGCA,-0.117
20,CGACTGCG,0.00321
21,ACCATATA,0.27
22,CGGATAAG,0.122
